“And” between values parts separate entries of the source, which are not always exact repeats. Equal values may be shown once. Out of some 270,000 compounds screened, about 5,800 (2.1%) were called active. Inconclusive results, whose numbers are uncertain, are shown with a selection of clear calls. The call rests on the fitted dose curve; in most records, active means well fitted inhibition curve with a large enough effect; inconclusive means small, poorly fitted or top-dose-only effect; inactive means flat fitted curve, though single readings scatter. Potencies of inconclusive entries are doubtful fits and often do not repeat.
Biological target: Microtubule-associated protein tau (Homo sapiens) (UniProt P10636)
Assay: qHTS for Inhibitors of Tau Fibril Formation, Thioflavin T Binding; further: nearly all actives have a fitted effect of over 55% in size
Settings: recombinant tau K18 P301L, heparin-induced fibrillization, ThT fluorescence; series mostly up to 57.4 µM
Outline: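 Using a mix of unlabeled (15 uM) and Alexa 594-labeled (0.24 uM) tau K18 P301L, heparin-triggered fibrillization over 6 hr at 37 C was scored by ThT fluorescence.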
On the % scale 0 is the no-effect control and ±100 the full control effect; potency means the concentration at half of the fitted maximal effect; tags describe the fitted curve by direction and shape.

UniProt P10636, sequence (P10636 whole entry, looked up): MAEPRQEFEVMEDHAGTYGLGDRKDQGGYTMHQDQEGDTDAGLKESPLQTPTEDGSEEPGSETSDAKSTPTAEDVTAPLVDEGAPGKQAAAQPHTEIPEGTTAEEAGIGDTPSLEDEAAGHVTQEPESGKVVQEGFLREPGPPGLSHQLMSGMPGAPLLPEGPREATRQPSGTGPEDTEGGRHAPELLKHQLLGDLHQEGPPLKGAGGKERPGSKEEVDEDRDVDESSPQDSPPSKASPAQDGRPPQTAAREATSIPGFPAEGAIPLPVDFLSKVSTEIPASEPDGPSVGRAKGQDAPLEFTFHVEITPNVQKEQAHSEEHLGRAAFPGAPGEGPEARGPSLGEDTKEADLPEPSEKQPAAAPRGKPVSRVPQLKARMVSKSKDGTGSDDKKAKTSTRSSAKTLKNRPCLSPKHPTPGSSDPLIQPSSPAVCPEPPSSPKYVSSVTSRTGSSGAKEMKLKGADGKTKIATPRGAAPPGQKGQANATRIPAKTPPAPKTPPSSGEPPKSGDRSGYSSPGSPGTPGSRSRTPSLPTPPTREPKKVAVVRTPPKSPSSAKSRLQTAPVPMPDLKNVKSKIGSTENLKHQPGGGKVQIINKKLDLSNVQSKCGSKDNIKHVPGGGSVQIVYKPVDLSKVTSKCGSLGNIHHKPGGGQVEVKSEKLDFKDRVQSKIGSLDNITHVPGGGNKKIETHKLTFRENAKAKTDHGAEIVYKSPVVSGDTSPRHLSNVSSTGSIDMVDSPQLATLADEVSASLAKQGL

| Compound | Potency | activity, negative = inhibition |
| --- | --- | --- |
| O=C(CC1Sc2ncnn2C1=O)Nc1ccc(Br)cc1 (stereo unspecified) | inconclusive: 28.2 µM [inhibitor, single point] |  |
| CC1=NN(c2ccc(C(=O)O)cc2)C(=O)/C1=C\c1ccc(OC(=O)c2cccs2)cc1 | inconclusive: 14.1 µM [inhibitor, partial curve] |  |
| COc1ccc(N(CC(=O)NC2CCCC2)C(=O)CCC(=O)Nc2cc(C)on2)c(OC)c1 | inactive |  |
| COc1ccc2cc(/C(C)=N/NC(=S)Nc3cc(S(=O)(=O)N4CCOCC4)ccc3N3CCOCC3)ccc2c1 | inconclusive: 5.01 µM [inhibitor, partial curve, poor fit] |  |
| CCOC(=O)c1c(NC(=O)CS(=O)(=O)c2cn(CC)c3ccccc23)sc2c1CCCC2 | inconclusive: 15.8 µM [inhibitor, partial curve, poor fit] |  |
| CC(C)(C)c1ccc(Oc2ccc(N)cc2)cc1 | inconclusive: 12.6 µM [inhibitor, single point] |  |
| O=C(/C=C/c1ccc(Cl)cc1Cl)c1nc2ccccc2[nH]1 | inconclusive: 28.2 µM [inhibitor, single point] |  |
| C/C=C/c1ccc(OCC(=O)Nc2cc(OC)c(OC)c(OC)c2)c(OC)c1 | inconclusive: 11.2 µM [inhibitor, partial curve] |  |
| O=[N+]([O-])c1ccc2nc(-c3ccc(Cl)cc3)[nH]c2c1 | inconclusive: 39.8 µM [inhibitor, single point] |  |
| Cc1ccccc1CNC(=O)C(C)n1nc(C)n2c(cc3occc32)c1=O (stereo unspecified) | inactive |  |
| CN1C(=O)/C(=N\OC(=O)c2ccccc2Cl)c2ccccc21 | inconclusive: 25.1 µM [inhibitor, partial curve] |  |
| O=C(N/N=C/c1cccc([N+](=O)[O-])c1)c1c[nH]c2ccccc12 | inconclusive: 7.94 µM [inhibitor, partial curve] |  |
| CC(=O)[C@@H]1[C@@H]2C(=O)N(c3ccc(F)c(Cl)c3)C(=O)[C@@H]2C2c3ccccc3C=CN21 (stereo partly specified) | inconclusive: 10 µM [inhibitor, partial curve] |  |
| O=C1CC(c2nc3ccccc3n2CCCCOc2ccccc2)CN1c1ccccc1Cl (stereo unspecified) | inconclusive: 12.6 µM [inhibitor, partial curve, poor fit] |  |
| CCOc1ccc(CC(=O)Nc2ccc3nc(N4CCCCC4)cc(C)c3c2)cc1OCC | inconclusive: 35.5 µM [inhibitor, partial curve, poor fit] |  |
| O=C(CSC1=NCCN1)NC(c1ccccc1)c1ccccc1 | inconclusive: 15.8 µM [inhibitor, partial curve] |  |
| CCN1N=C(C)C=C(c2ccccc2)n2c1nc1ccccc12 | inactive |  |
| Cc1ccc(N/N=C/c2c(O)cc(C)oc2=O)cc1 | inconclusive: 25.1 µM [inhibitor, partial curve, poor fit] |  |
| O=C(Cc1c[nH]c2ccccc12)NCc1ccc(Cl)cc1Cl | inconclusive: 44.7 µM [inhibitor, single point] |  |
| COc1ccc(C(=O)/C=C/c2ccc(N(C)C)cc2)c(OC)c1 | inconclusive: 0.794 µM [inhibitor, full curve] |  |

| Compound | Potency | activity, negative = inhibition |
| --- | --- | --- |
| COc1ccc(-c2nc3scc(CCNS(=O)(=O)c4ccc(F)cc4F)n3n2)cc1OC | inactive |  |
| O=C(NCCc1ccccc1)c1ccc2c(c1)N(Cc1ccccc1Cl)C(=O)c1ccccc1S2 | inactive |  |
| Cc1ccc(-c2nn3c(C)nnc3s2)cc1NC(=O)COc1ccc(Cl)cc1 | inconclusive: 15.8 µM [inhibitor, partial curve, poor fit] |  |
| COc1ccc(C2=CC3=C(Br)C(=O)C(C)(OC(=O)c4ccco4)C(=O)C3=CO2)cc1 (stereo unspecified) | active: 14.1 µM and active: 15.8 µM |  |
| O=C(COC(=O)C1(c2cccc(F)c2)CCCC1)NCc1ccc2c(c1)OCO2 | inactive |  |
| NS(=O)(=O)c1ccc(NC(=O)CCn2c(=O)oc3ccccc32)cc1 | inactive |  |
| COc1ccc(/C=C/NC(=O)Cc2ccc(OC)c(OC)c2)cc1 | inconclusive: 7.94 µM [inhibitor, single point] | inactive: -4.15% [at 11.5 µM] |
| Cc1c(C(=O)N2CCCC2)oc2c1-c1nn(CC(=O)NCc3cccc(Br)c3)cc1CC2 | inconclusive: 14.1 µM [inhibitor, partial curve] |  |
| Cc1ccc(C)c(N2CC(=O)N(c3cc(C)ccc3C)CC2=O)c1 | inactive |  |
| COc1ccccc1-n1c(=O)c(C#N)c(-c2ccc([N+](=O)[O-])cc2)c2cc(C(=O)c3cc(F)ccc3O)cnc21 | inactive |  |
| O=C(Cn1c(=O)n(Cc2ccc3c(c2)OCO3)c(=O)c2ccccc21)Nc1cccc(Cl)c1 | inconclusive: 7.94 µM [activator, partial curve] |  |
| Cc1ccccc1Cn1c(O)c(N=NC(=S)Nc2ccccc2F)c2ccccc21 | inconclusive: 7.94 µM [inhibitor, partial curve] |  |
| C=CCSc1nc2c(c(=O)[nH]1)C(c1ccccc1)C(C#N)=C(N)O2 (stereo unspecified) | inactive |  |
| O=C1[C@@H]2C(c3cccnc3)=NO[C@@H]2C(=O)N1c1ccc2ccccc2c1 | inconclusive: 20 µM [inhibitor, partial curve] |  |
| Cc1ccc(SCc2cn3c(C)csc3n2)cc1 | inconclusive: 35.5 µM [inhibitor, partial curve] |  |
| CCCOC(=O)c1ccc(NC(=O)c2cc(OC)c(OC)c(OC)c2Br)cc1 | inconclusive: 15.8 µM [inhibitor, single point] |  |
| Clc1ccc2nc(-c3ccc(Br)s3)cn2c1 | inconclusive: 10 µM [inhibitor, partial curve] |  |
| O=C1C(=O)c2ccccc2C(O)=C1C1CCC(c2ccc(Cl)cc2)CC1 (stereo unspecified) | inconclusive: 10 µM [inhibitor, partial curve, poor fit] |  |
| COC(=O)Cc1cn(-c2ncc(C(F)(F)F)cc2Cl)c2ccccc12 | inconclusive: 44.7 µM [inhibitor, partial curve, poor fit] |  |
| Cc1ccc(-c2noc(COc3ccc(Br)c(C)c3)n2)cc1 | inconclusive: 1.78 µM [inhibitor, full curve, poor fit] |  |

Reference: PubChem BioAssay AID1460 (National Center for Advancing Translational Sciences (NCATS), 2008)
